The whole screen tested about 310,000 compounds, of which about 2,200 (0.71%) showed an effect of 50% or more. The effect is printed as a negative number. This is one part of the list.
The molecules below were run against human ether-à-go-go-related gene (hERG) potassium channel (human, UniProt Q12809) (assay: primary screen, population patch clamp on CHO cells stably expressing hERG).
Sequence of human ether-à-go-go-related gene (hERG) potassium channel (Q12809 whole entry, looked up): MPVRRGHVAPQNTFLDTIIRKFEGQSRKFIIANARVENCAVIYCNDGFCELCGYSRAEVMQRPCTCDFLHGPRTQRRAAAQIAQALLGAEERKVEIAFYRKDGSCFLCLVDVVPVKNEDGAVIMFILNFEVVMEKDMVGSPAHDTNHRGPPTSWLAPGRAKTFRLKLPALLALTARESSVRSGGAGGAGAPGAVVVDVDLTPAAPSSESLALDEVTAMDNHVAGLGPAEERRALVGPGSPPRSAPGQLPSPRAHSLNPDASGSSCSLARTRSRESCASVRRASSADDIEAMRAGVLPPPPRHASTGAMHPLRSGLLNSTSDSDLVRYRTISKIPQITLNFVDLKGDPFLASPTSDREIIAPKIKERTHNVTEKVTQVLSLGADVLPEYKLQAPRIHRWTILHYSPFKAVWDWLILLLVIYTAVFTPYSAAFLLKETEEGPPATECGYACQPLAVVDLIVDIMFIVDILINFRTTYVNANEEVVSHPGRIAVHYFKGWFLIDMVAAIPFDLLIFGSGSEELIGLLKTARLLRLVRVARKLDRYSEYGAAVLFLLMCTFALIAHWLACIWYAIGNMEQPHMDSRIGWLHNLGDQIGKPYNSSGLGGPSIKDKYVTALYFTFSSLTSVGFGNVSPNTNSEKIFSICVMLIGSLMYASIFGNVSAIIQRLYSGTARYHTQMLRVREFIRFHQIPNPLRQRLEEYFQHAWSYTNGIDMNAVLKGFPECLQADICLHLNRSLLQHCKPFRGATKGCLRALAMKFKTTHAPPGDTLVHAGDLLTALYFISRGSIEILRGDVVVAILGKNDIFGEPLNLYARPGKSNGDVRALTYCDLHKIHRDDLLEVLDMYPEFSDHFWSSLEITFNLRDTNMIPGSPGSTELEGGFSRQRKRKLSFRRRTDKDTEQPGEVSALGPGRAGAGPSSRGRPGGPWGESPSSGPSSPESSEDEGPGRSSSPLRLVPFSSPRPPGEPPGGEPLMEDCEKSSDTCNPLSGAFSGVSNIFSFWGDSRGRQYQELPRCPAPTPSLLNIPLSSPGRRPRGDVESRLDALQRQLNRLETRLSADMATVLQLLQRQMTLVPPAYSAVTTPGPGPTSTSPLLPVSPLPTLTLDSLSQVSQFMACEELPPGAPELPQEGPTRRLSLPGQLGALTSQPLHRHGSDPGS

Structure (SMILES) | hERG current change (%, negative = inhibition) at 1uM
CN(C)CCCOC(=O)c1ccc(Br)cc1 | -6.15%
COc1ccc2c(c1OC)C(=O)N(c1ccc(O)cc1)C2=O | 8.72%
O=C(NCc1ccco1)C(c1cccs1)N(C(=O)Cc1cccs1)c1ccccc1 (stereo not drawn) | 10.4%
O=S(=O)(c1ccc2nc(Cc3cccc(C(F)(F)F)c3)[nH]c2c1)N1CCOCC1 | 7.9%
CCC1(CC)NC(=O)N(CC(=O)Nc2sc3c(c2C(N)=O)CCC3)C1=O | 3.78%
C=CCCCCCCCCc1nc(SCC(C)=O)n[nH]1 | 13.5%
COc1ccc(CCNC(=O)CCc2ccc(OC)cc2)cc1 | 8.65%
O=C1CN(C(=O)NCC(=O)N[C@@H](Cc2ccccc2)C(=O)O)c2ccccc2N1 | 11.4%
Cc1ccc(C(=O)Nc2ccccc2C(=O)N2CCOCC2)cc1[N+](=O)[O-] | 2.39%
COc1ccc(S(=O)(=O)N2CCC(C(=O)N(CC(C)C)C3CCS(=O)(=O)C3)CC2)cc1OC (stereo not drawn) | 8.42%
CCOc1ccccc1N1CC(C(=O)N(Cc2nnc(-c3ccccc3Cl)o2)C2CC2)CC1=O (stereo not drawn) | 6.5%
CCn1c(O)c(C=NC2CCCC2)sc1=S | -6.55%
CC1CC1C(=O)OCC(=O)NCc1ccc(Cl)cc1Cl (stereo not drawn) | 2.41%
Cn1c(=O)c2c(nc(NCCc3ccccc3)n2Cc2ccc(F)cc2)n(C)c1=O | -0.534%
O=C(CCCc1ccccc1)Nc1ccc(Br)cc1F | 14.5%
CS(=O)(=O)N(CC(=O)N/N=C/c1ccco1)c1ccccc1Br | 9.55%
C/C(CC(O)c1ccc2ccccc2n1)=N/O (stereo not drawn) | -3.1%
CCOc1ccc2c(c1)cc(CN(C(=O)CC)C1CCCCC1)c1nnnn12 | -3.42%
CCC1(c2ccccc2)NC(=O)N(CC(=O)N2CCN(S(=O)(=O)c3ccccc3)CC2)C1=O (stereo not drawn) | 9.63%
Cc1ccc(Sc2c(C)[nH]n(C(C)(C)C)c2=O)cc1 | 3.61%
Cc1cc(N2C(=O)C(O)=C(C(=O)c3cc4ccccc4o3)C2c2ccc(Br)cc2)no1 (stereo not drawn) | 13.4%
S=C(N/N=C/c1ccc(Cl)c(Cl)c1)Nc1ccccc1Cl | 1.92%

Structure (SMILES) | hERG current change (%, negative = inhibition) at 1uM
CSc1ccc(C(=O)C2CCCN(Cc3cc4ccccc4[nH]3)C2)cc1 (stereo not drawn) | -40.6%
O=C(CC1S/C(=N\S(=O)(=O)c2ccc(F)cc2)N(c2ccccc2)C1=O)Nc1ccccc1 (stereo not drawn) | 14.9%
CCOC(=O)NC(=O)c1cn(Nc2ncc(C(F)(F)F)cc2Cl)c(=O)[nH]c1=O | 17.1%
COCCN(Cc1cc2cc3c(cc2nc1Cl)OCO3)C(=O)Nc1ccc(OC)cc1 | 15%
Cc1ccc(Cc2ccc(C(=O)NNC(N)=S)o2)cc1 | 3.74%
C=CCS(=O)(=O)N1CCCC(N(C)CCc2ccc(OC)c(OC)c2)C1 (stereo not drawn) | 5.89%
C=CP(=O)(O)c1ccccc1 | 14.7%
CC(=O)Nc1cc[n+](CC(=O)c2ccc(Cl)cc2)cc1.[Br-] | 15.1%
Cc1cccc(-c2nnc(SCCOc3ccc4c(C)cc(=O)oc4c3)o2)c1 | 8.66%
CC(Oc1cccc(Cl)c1)C(=O)Nc1cc(S(=O)(=O)N2CCCCC2)ccc1N1CCOCC1 (stereo not drawn) | 0.476%
COc1ccc(N2C(=O)C3C(C2=O)C2C=CC3C23CC3)c([N+](=O)[O-])c1 (stereo not drawn) | 11.9%
COC(=O)C(CC(C)C)NC(=O)c1cc(OC)c(OC)c(OC)c1 (stereo not drawn) | -1.33%
Cc1ccc(SCC(=O)N2CCOCC2)cc1 | 7.21%
CC1CCc2cc(F)ccc2N1C(=O)CSc1nnc2c(n1)[nH]c1ccc(F)cc12 (stereo not drawn) | 13.7%
COCCN1Cc2cccc(C(=O)Nc3ccc(C)cc3)c2C1=O | -2.34%
C#CCOCCOCCOCCNc1nc(N2CCN(C(=O)[C@H]([C@@H](C)CC)n3cc(CCC[NH+]=C(N)N)nn3)CC2)nc(N2CCN(C(=O)[C@H](CCCC[NH3+])n3cc(CCCC)nn3)CC2)n1.[Cl-] | 10.2%
Cc1cc(N=Nc2ccc(Cl)cc2)cc(CN2CCCC2)c1O | 13.8%
Cc1cc(C(=O)Nc2cccc(NC(=O)c3ccco3)c2)ccc1[N+](=O)[O-] | 10%
COc1ccccc1OCCNCC(O)COc1cccc2[nH]c3ccccc3c12 (stereo not drawn) | -14.6%
CCOC(=S)SCc1cn2cccc(C)c2n1 | 10.1%
N#Cc1ccccc1S(=O)(=O)Nc1ccc2c(c1)C(=O)OC2 | 13.3%
O=Cc1ccc(OCc2nnc(-c3ccccc3Br)o2)cc1 | -0.275%

Structure (SMILES) | hERG current change (%, negative = inhibition) at 1uM
Nn1c(COc2ccccc2F)nnc1SCC(=O)NC1CCS(=O)(=O)C1 (stereo not drawn) | 6.73%
NS(=O)(=O)c1ccc(CCNC(=O)c2ccc(-c3ccccc3)cc2)cc1 | 9.1%
O=C1Nc2cc(C(=O)NCCCN3CCOCC3)ccc2S/C1=C/c1cccc(Cl)c1 | 15.9%
CN(CC(=O)NCCc1ccccn1)S(=O)(=O)c1ccc(Cl)cc1 | 5.02%
COC(=O)C1(CCSC)NC(c2ccccc2OC)C2C(=O)N(C)C(=O)C21 (stereo not drawn) | 5.27%
COC(=O)C1=C(C)NC(=O)/C1=C\c1ccc2c(c1)OCO2 | 9.62%
O=C(CSc1ncn[nH]1)CSc1ncn[nH]1 | 16.8%
CC1CN(C(=O)C(C)N2CCN(c3ccccc3Cl)CC2)CC(C)O1 (stereo not drawn) | 12.1%
O=C(CC1C(=O)N(c2ccc(F)cc2)C(=O)N1Cc1ccccn1)Nc1ccccc1 (stereo not drawn) | 1.05%
O=C(O)c1cc(C(=O)C2CC2)c[nH]1 | 10%
Cc1ccccc1OCCCCn1c(CO)nc2ccccc21 | -0.387%
O=C(CN(C1CCCCC1)S(=O)(=O)c1ccc(Cl)cc1)NCc1ccncc1 | -49.5%
Cc1ccc(/C([O-])=C(/C(=S)NCCN2CCOCC2)[n+]2ccccc2)cc1[N+](=O)[O-] | 12.4%
CCCCn1c(N)c(N(CC(C)C)C(=O)CCC2CCCCC2)c(=O)[nH]c1=O | 15.4%
CCOc1ccc(NC(=O)Cn2nc(-c3ccccc3Cl)n(CC)c2=S)cc1 | 11.9%
CN(C)CCCn1c(=O)n(C2CCCCC2)c(=O)c2c3c(sc21)CCCCC3 | -4.54%
O=C(Nc1ccc(S(=O)(=O)N2CCCCC2)cc1)c1ccccc1Cl | -19.1%
CC1CCc2c(sc3ncn(Cc4ccc(C(=O)O)cc4)c(=O)c23)C1 (stereo not drawn) | 16.9%
COc1ccc(-n2c(O)c(C=NCC(c3ccco3)N3CCCC3)c3ccccc3c2=O)cc1OC (stereo not drawn) | 15.6%
COc1ccc(Cl)cc1N(CC(=O)Nc1ccccc1C(=O)NCc1ccco1)S(C)(=O)=O | 10.6%
CC(NC(=O)c1cc(Br)ccc1Cl)c1ccccc1 (stereo not drawn) | 8.07%
CCc1c(C)nc2ncnn2c1NC1CCCc2ccccc21 (stereo not drawn) | 7.29%

Structure (SMILES) | hERG current change (%, negative = inhibition) at 1uM
O=C(NCCN1CCN(c2ccc([N+](=O)[O-])cc2)CC1)NCc1ccccc1 | -20.2%
COc1ccc(N(CC(=O)N2CCN(C)CC2)S(=O)(=O)c2ccccc2)cc1OC | 7.23%
COc1ccc(OCC(=O)OC2CCN(C)CC2)cc1.Cl | -0.291%
O=[N+]([O-])c1cccc2cn[nH]c12 | 8.24%
CC(NC(=O)COC(=O)CC(c1ccccc1)c1ccccc1)c1ccccc1 (stereo not drawn) | 15.4%
O=C(Nc1ccc(F)cc1)N1CCN(c2nc3ccccc3s2)CC1 | 12.3%
CC(=O)N1CCCC(C(=O)c2ccc(Oc3ccccc3)cc2)C1 (stereo not drawn) | -3.12%
COC(=O)CCSc1cc([N+](=O)[O-])cc2c1c(C1OCCO1)nn2-c1ccccc1 | 16.4%
CCN(CC)S(=O)(=O)c1ccc(NC(=S)Nc2ccccc2)cc1 | 13.1%
CCc1c(O)cc(=O)n(-c2ccccc2)c1-c1ccccc1 | 10.4%
Cc1ccc(C)c(NC(=O)COC(=O)CCC(=O)c2cccs2)c1 | 16.3%
Cc1ccc(C(=O)Nc2ccccc2N2CCCC2)cc1S(=O)(=O)N1CCOCC1 | 3.22%
CCOc1cc(OCC)c(C(C)=O)cc1OCC | 10.8%
CCC(c1nnnn1Cc1ccccc1)N1CCN(C(=O)c2ccco2)CC1 (stereo not drawn) | -2.48%
O=C(Nc1ccccc1)c1c(O)c2c(n(Cc3ccco3)c1=O)CCCC2 | 13.1%
COC(=O)c1ccc(COC(=O)c2cccn2C)o1 | 8.18%
Cc1ccc(C(C(=O)NC(C)(C)C)N(CC2CCCO2)C(=O)Cn2nnc(-c3ccc(C)o3)n2)cc1 (stereo not drawn) | 6.88%
COc1ccc(C(=O)N(CC(=O)NC(C)(C)C)c2ccc3c(c2)OCCO3)cc1OC | -1.9%
O=C(c1ccc(F)cc1)C1CCN(C(=O)c2ccncc2)CC1 | 2.11%
CN(C)C(=O)COC(=O)c1cc(Cl)cc(Cl)c1N | 5.1%
CCCCOc1cccc(C(=O)Nc2ccc(N3CCN(CC)CC3)cc2)c1 | 7.22%
